Measurements taken from PubChem BioAssay AID1476 (National Center for Advancing Translational Sciences (NCATS), 2009).
In all, about 200,000 compounds went through this assay and about 4,500 (2.2%) were called active. Inconclusive means that the source gave no clear call. Such entries were picked first, then a sample of the others. Calls follow the shape of the dose curve; as a rule, active = well fitted inhibition curve with a large enough effect; inconclusive = small, poorly fitted or top-dose-only effect, or effect the other way; inactive = flat fitted curve, though single readings scatter. Potencies of inconclusive entries are doubtful fits and often do not repeat.

Molecular target: Cruzipain (Trypanosoma cruzi) (UniProt P25779)
Test: qHTS Assay for Promiscuous and Specific Inhibitors of Cruzain (without detergent); also: nearly all actives have a fitted effect of over 40% in size;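 as to max response, negative = inhibition: plate controls were enzyme without inhibitor for no effect and buffer without enzyme for full effect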
Conditions: purified cruzain, Z-FR-AMC fluorescence, no detergent
Outline: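 Detergent-free condition (0.00005% Triton X-100) in acetate buffer pH 5.5 with DTT. 1.5 nM enzyme and compound were pre-mixed 15 min, then 2 uM Z-FR-AMC substrate added; reaction progress from fluorescence change between first and third reads (60 s).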
Potency is read from the fitted curve at half-maximal effect; tags tell the direction and shape of the fitted curve.

Sequence of UniProt P25779 (P25779 whole entry, looked up): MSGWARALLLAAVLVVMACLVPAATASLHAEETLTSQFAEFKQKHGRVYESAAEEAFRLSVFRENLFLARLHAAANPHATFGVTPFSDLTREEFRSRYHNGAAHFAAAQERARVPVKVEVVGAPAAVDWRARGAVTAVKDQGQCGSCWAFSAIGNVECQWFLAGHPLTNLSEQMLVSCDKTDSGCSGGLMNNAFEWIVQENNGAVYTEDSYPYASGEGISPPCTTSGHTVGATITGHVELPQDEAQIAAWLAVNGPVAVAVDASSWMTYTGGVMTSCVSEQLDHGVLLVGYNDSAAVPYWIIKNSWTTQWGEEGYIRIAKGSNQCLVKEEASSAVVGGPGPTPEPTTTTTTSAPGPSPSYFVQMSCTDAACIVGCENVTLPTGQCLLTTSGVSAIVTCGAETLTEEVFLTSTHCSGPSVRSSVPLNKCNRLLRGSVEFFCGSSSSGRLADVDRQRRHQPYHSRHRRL

| SMILES | max response, negative = inhibition | Potency |
| --- | --- | --- |
| Cc1ccccc1C(=O)Nc1cccc(C(=O)OCc2cc(=O)n3nc(C4CC4)sc3n2)c1 | inactive: -6.15% | – |
| CC1=C(C(=O)OCc2ccccc2)C(/C=C/c2ccccc2)NC(=S)N1 (configuration not stated) | – | inconclusive: 31.6 µM [inhibitor, single point] |
| CCOC(=O)N1CCC(Nc2ccc3nnc(-c4ccccc4)n3n2)CC1 | – | inconclusive: 31.6 µM [activator, single point] |
| COCCn1c(=NC(=O)c2nc3ccccc3s2)sc2cc(S(C)(=O)=O)ccc21 | – | inconclusive: 39.8 µM [activator, single point] |
| CCOC(=O)c1c(NC(=O)C2CCN(S(=O)(=O)c3ccc(Cl)cc3)CC2)sc2c1CCCC2 | – | active: 15.8 µM |
| O=C(CN1C(=O)S/C(=C\c2ccccc2)C1=O)NNC(=O)c1ccccc1O | – | inconclusive: 39.8 µM [inhibitor, single point] |
| Cc1cccc2cc3c(N)c(C(=O)N4CCCc5ccccc54)sc3nc12 | – | inconclusive: 39.8 µM [inhibitor, single point] |
| CC(=O)N(OCc1ccccc1)[C@@H]1c2cc(C#N)ccc2OC(C)(C)[C@H]1O | – | inconclusive: 39.8 µM [activator, single point] |
| Cn1cc(/C=C2\SC(=O)N(c3ccccc3)C2=O)c2ccccc21 | – | inconclusive: 39.8 µM [inhibitor, single point] |
| COC(=O)CSc1nc(N)c2c3c(sc2n1)C(c1ccccc1)SC(c1ccccc1)C3 (configuration not stated) | – | active: 12.6 µM |
| Cc1sc2ncn(CC(=O)N3CCN(c4ccc(F)cc4)CC3)c(=O)c2c1S(=O)(=O)N1CCN(c2ncccn2)CC1 | – | inconclusive: 31.6 µM [activator, single point] |
| Cc1ccc(-c2nnc(SCC(=O)Nc3ccc4c(c3)oc3ccccc34)n2C)c(Cl)c1 | – | inconclusive: 20 µM [inhibitor, single point] |
| CCC(=O)N1CCc2cc(S(=O)(=O)NC(CC(C)C)C(=O)NCc3ccc(C)cc3)ccc21 (configuration not stated) | – | inconclusive: 10 µM [activator, partial curve, poor fit] |
| Cc1ccc(O)c(-c2n[nH]c3c2C(c2ccccc2F)N(Cc2ccco2)C3=O)c1 (configuration not stated) | – | inconclusive: 39.8 µM [inhibitor, single point] |
| COc1ccccc1NC(=O)CN(c1ccc(C23CC4CC(CC(C4)C2)C3)cc1)S(C)(=O)=O | – | inconclusive: 39.8 µM [inhibitor, single point] |
| O=C(Cc1coc2ccc3ccccc3c12)NC1CCCc2ccccc21 (configuration not stated) | – | inconclusive: 31.6 µM [inhibitor, single point] |
| CCOC(=O)N1CCC(NC(=O)C2CCN(C(=O)N3CC(C)Oc4ccccc43)CC2)CC1 (configuration not stated) | – | inconclusive: 25.1 µM [activator, single point] |
| O=C(COC(=O)/C=C/c1ccc([N+](=O)[O-])cc1)NC(c1ccccc1)c1ccccc1 | – | inconclusive: 39.8 µM [inhibitor, single point] |
| c1ccc(-c2nc3nonc3c3nc4ccccc4n23)cc1 | – | inconclusive: 39.8 µM [inhibitor, single point] |
| COc1ccc(-c2cc3nc(C)c(CCC(=O)NC(C)CCc4ccco4)c(C)n3n2)c(OC)c1 (configuration not stated) | – | inconclusive: 25.1 µM [activator, partial curve] |
| CC(C)N(C(=O)COC(=O)c1ccccc1C(=O)N1CCN(c2ccc(F)cc2)CC1)C(C)C | – | inconclusive: 31.6 µM [activator, single point] |

| SMILES | max response, negative = inhibition | Potency |
| --- | --- | --- |
| Cc1cc(-c2ccccc2)[nH]c(=O)c1S(=O)(=O)c1ccc(Cl)cc1 | – | inconclusive: 20 µM [inhibitor, single point] |
| O=C(N/N=C/c1ccccc1Br)c1ccc(CSc2cccc3cccnc23)cc1 | – | active: 10 µM |
| O=C(NCC1CCN(Cc2ccc(F)cc2)CC1)c1cc2ccc3cccnc3c2[nH]1 | inactive: -19.5% | – |
| CCOc1ccc(NC(=O)Cn2c(=O)oc3cc(S(=O)(=O)N4CCC(C)CC4)ccc32)cc1 | inactive: 10.7% | – |
| CCCNC(=O)CS(=O)Cc1nc(-c2cccc(OC)c2)oc1C (configuration not stated) | – | inconclusive: 12.6 µM [inhibitor, partial curve, poor fit] |
| Cc1cc(C(=O)Cn2nnc3ccccc3c2=O)c(C)n1Cc1cccs1 | – | inconclusive: 31.6 µM [inhibitor, single point] |
| Cc1cc(=O)n2nc(N(C)CC(=O)NCc3ccc(Cl)cc3)sc2n1 | inactive: -2.33% | – |
| COc1ccc(/C=N/NS(=O)(=O)c2ccccc2)cc1OC(=O)c1ccc(C)cc1 | – | inconclusive: 31.6 µM [inhibitor, single point] |
| COc1ccc(OC)c(CCNC(=O)c2cc3c(=O)n(C)c4ccccc4c3n2C)c1 | – | inconclusive: 39.8 µM [activator, single point] |
| CC(=O)NCCNc1ncncc1-c1ccc(N(C)C)cc1 | inactive: -3.65% | – |
| CN(C)Cc1c(O)ccc2c3c(c(=O)oc12)CCCCC3 | – | inconclusive: 31.6 µM [inhibitor, single point] |
| O=C1c2ccccc2C(=O)C12Cc1ccccc1N1CCN(c3ccccc3)CC12 (configuration not stated) | – | inconclusive: 31.6 µM [inhibitor, single point] |
| COc1cc2c(Cc3c4c5c(cc(OC)c(OC)c5c5c(OC)c(OC)ccc35)CCN4C)c3c4c(cc(OC)c(OC)c4c2cc1OC)CCN3C | inactive: 9.22% | – |
| COc1ccc(-c2nn(-c3ccccc3)cc2/C=C/C(=O)OCC(=O)Nc2cccc(C#N)c2)cc1 | – | active: 31.6 µM |
| N#C[C@H]1[C@H](c2ccccc2)[C@](C#N)(C(=O)c2ccccc2)[C@@H]2C=Cc3ccccc3N21 | – | active: 25.1 µM |
| COc1cc(NC(=O)c2ccc(C)cc2)c(OC)cc1NC(=O)CN1CCOCC1 | – | inconclusive: 31.6 µM [activator, single point] |
| O=c1c2cnn(-c3ccccc3)c2nc(-c2cccs2)n1-c1cccc(Cl)c1 | – | inconclusive: 31.6 µM [inhibitor, single point] |
| CCOc1ccc(-c2noc(-c3cccnc3)n2)cc1OC | – | inconclusive: 39.8 µM [activator, single point] |
| CCCCN(CC)CCCNC(=O)c1cn(CC)c2ccc(S(=O)(=O)N3CCOCC3)cc2c1=O | inactive: -10.5% | – |
| CC(=O)c1ccc(NC(=O)CSc2nccn2Cc2ccc3c(c2)OCO3)cc1 | inactive: -5.65% | – |
| Cc1cc(SCC(=O)NCc2ccc(F)cc2)nc(=O)[nH]1 | – | inconclusive: 3.16 µM [activator, single point] |

| SMILES | max response, negative = inhibition | Potency |
| --- | --- | --- |
| N#C/C(=C/c1ccc(Cl)cc1)NC(=O)c1ccccc1 | – | inconclusive: 39.8 µM [inhibitor, single point] |
| Cn1ncc(C(=O)N2CCN(c3ccccc3F)CC2)c1C1CCN(C(=O)OC(C)(C)C)CC1 | – | inconclusive: 39.8 µM [activator, single point] |
| COc1ccc(NC(=O)c2ccco2)cc1NC(=O)c1ccco1 | inactive: 2.6% | – |
| COc1cc(C2CC(=O)Oc3cc(C)c(Cl)cc32)cc(OC)c1OC (configuration not stated) | – | inconclusive: 50.1 µM [activator, single point] |
| COc1ccc(-c2nnc(SCC(=O)Nc3ncc(C(F)(F)F)cc3Cl)n2CC(C)C)cc1 | – | inconclusive: 39.8 µM [activator, single point] |
| O=C1c2ccccc2C(=O)c2c(O)ccc(O)c21 | inactive: -9.97% | – |
| CN(C)C1C(=O)C(C(N)=O)=C(O)[C@@]2(O)C(=O)C3=C(O)c4c(O)cccc4[C@@](C)(O)C3CC12 (some centres not stated) | inactive: 11.7% | – |
| CCCN1C(C(=O)c2ccccc2)=C(OC(=O)c2ccc(C)cc2)c2ccccc2S1(=O)=O | – | inconclusive: 31.6 µM [inhibitor, single point] |
| CCC1=C(OC(=O)N(CC)CC)N2C(=O)OC(=NCCc3c[nH]c4ccccc34)[C@]2(Cc2ccccc2)[C@H]2C1=CC[C@H]1C(=O)N(C)C(=O)[C@H]12 | – | inconclusive: 20 µM [activator, partial curve] |
| CC(=O)Oc1c2c(c3c(c1CC=C(C)C)O[C@@]14C(=CC5CC1C(C)(C)OC4(C/C=C(\C)C(=O)O)C5=O)C3=O)OC(C)(CCC=C(C)C)C=C2 (some centres not stated) | – | inconclusive: 25.1 µM [activator, partial curve] |
| CCCCNC(=S)N(C)/N=C/c1c(C)[nH]c2ccccc12 | – | inconclusive: 15.8 µM [inhibitor, partial curve] |
| Cc1cc[n+](CC(=O)c2cc3ccccc3oc2=O)cc1 | inactive: -12.4% | – |
| c1ccc2cc(NCNc3ccc4ccccc4c3)ccc2c1 | inactive: -7.79% | – |
| Cc1cccc(CNc2ncnc3ccc(-c4ccc(C(=O)N(C)C)cc4)cc23)c1 | – | inconclusive: 39.8 µM [activator, single point] |
| Cc1ccc(Nc2nnc(SCC(=O)Nc3ncc(S(=O)(=O)c4ccc([N+](=O)[O-])cc4)s3)s2)cc1 | – | active: 7.94 µM |
| O=C(N/N=C/c1c[nH]c2c1ccc1ccccc12)c1ccc([N+](=O)[O-])cc1 | – | active: 6.31 µM |
| CCOC(=O)c1c(C)n(C)c2ccc(OC(=O)c3ccc(N4C(=O)CCC4=O)cc3)cc12 | – | inconclusive: 31.6 µM [activator, single point] |
| O=C1OCCN1C(=O)[C@H]1[C@H](c2ccc(Cl)cc2)C(c2ccc(F)cc2)=NN1c1ccc(Br)cc1 | – | active: 11.2 µM |
| N#Cc1ccc(-c2csc(NC(=O)/C=C/c3cccs3)n2)cc1 | – | inconclusive: 31.6 µM [inhibitor, single point] |
| CC(=O)NCC(=O)N(C)C(C(=O)Nc1ccc(C(C)C)cc1)c1ccccc1 (configuration not stated) | – | inconclusive: 31.6 µM [activator, single point] |
